These results are taken from article PMC4336329 (PLoS ONE, 2015).

Out of some 310,000 compounds screened, about 2,200 (0.71%) showed an effect of 50% or more. Effects have a minus sign here. The list shows a part of the results.

The experiment deals with human ether-à-go-go-related gene (hERG) potassium channel (human, UniProt Q12809). Briefly: primary screen, population patch clamp on CHO cells stably expressing hERG.
Sequence of human ether-à-go-go-related gene (hERG) potassium channel (Q12809 whole entry, looked up): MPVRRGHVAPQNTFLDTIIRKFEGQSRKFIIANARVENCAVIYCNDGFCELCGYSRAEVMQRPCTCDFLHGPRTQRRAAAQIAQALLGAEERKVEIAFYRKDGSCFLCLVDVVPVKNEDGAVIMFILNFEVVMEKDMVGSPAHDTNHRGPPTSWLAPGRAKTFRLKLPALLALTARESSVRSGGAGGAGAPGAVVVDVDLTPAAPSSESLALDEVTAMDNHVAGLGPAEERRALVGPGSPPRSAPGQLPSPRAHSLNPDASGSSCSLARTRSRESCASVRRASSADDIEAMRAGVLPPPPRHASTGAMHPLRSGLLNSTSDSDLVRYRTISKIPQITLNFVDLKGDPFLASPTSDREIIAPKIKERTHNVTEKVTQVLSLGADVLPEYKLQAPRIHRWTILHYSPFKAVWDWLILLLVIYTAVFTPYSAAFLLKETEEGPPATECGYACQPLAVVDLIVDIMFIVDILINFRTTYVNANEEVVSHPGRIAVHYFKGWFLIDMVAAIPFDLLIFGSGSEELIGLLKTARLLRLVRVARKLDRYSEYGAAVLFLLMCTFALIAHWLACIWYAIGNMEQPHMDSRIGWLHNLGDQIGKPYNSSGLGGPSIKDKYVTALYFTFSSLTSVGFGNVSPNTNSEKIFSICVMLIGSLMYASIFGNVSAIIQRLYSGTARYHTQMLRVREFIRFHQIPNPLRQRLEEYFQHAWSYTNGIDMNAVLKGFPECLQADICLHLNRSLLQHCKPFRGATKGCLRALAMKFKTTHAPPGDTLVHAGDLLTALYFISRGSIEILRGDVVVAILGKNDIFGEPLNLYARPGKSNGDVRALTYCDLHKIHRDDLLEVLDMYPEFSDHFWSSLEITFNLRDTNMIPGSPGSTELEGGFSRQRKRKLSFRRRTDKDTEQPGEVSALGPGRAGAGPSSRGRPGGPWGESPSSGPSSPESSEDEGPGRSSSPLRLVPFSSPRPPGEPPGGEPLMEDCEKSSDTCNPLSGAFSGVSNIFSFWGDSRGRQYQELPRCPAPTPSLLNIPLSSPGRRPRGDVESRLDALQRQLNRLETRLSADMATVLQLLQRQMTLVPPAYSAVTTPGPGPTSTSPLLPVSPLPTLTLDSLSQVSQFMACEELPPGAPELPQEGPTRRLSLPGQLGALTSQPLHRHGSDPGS
For the compound `CCc1ccc(NC(=O)C(=O)NCCOc2ccccc2Cl)cc1`, the “hERG current change (%, negative = inhibition) at 1uM” value is 10.7%.

Take `CC(=O)c1ccc(N2CCN(C(=O)c3cccs3)CC2)c(F)c1`: the “hERG current change (%, negative = inhibition) at 1uM” value is listed as 4.76%.

Consider `CN(C)/C=C1/Sc2ccccc2C1=O`, for which the “hERG current change (%, negative = inhibition) at 1uM” value worked out at 13.5%.

Turning to `Cc1ccc(-n2c(SCC(=O)N/N=C/C=C/c3ccccc3[N+](=O)[O-])nc3ccccc3c2=O)cc1`, the “hERG current change (%, negative = inhibition) at 1uM” value was 5.85%.

Regarding `Cc1ccc(C(=O)C(C)OC(=O)c2nc(Cl)ccc2Cl)cc1` (stereo not drawn), the “hERG current change (%, negative = inhibition) at 1uM” value was 13.2%.

Turning to `Cc1ccc2c(c1Br)/C(=N/N1C(=O)c3ccccc3C1=O)C(=O)N2`, the “hERG current change (%, negative = inhibition) at 1uM” value is reported as 17%.

As for `N/C(=N\NC(=O)Nc1ccccc1)c1ccccn1`, the “hERG current change (%, negative = inhibition) at 1uM” value is 4.06%.

For the compound `O=C(Nc1ccc(Cl)c(C(F)(F)F)c1)[C@@H]1CC=C[C@@H]2CCN(Cc3ccc(Cl)c(Cl)c3)C(=O)[C@@H]21`, the “hERG current change (%, negative = inhibition) at 1uM” value is 23.5%.

`O=C(CCn1c(=O)c2sccc2n(CC(=O)NCc2ccco2)c1=O)NCc1ccccc1`: the “hERG current change (%, negative = inhibition) at 1uM” value was found to be 11.2%.

`COC(=O)C1=C(N)OC2=C(C(=O)CC(C)(C)C2)C1c1cccnc1` (stereo not drawn): the “hERG current change (%, negative = inhibition) at 1uM” value came to 17.9%.

Regarding `Cc1ccc(N(C)C(=O)c2ccc3c(Cl)c4c(nc3c2)CCC4)cc1C`, the “hERG current change (%, negative = inhibition) at 1uM” value came to 12.6%.

In the case of `COC(=O)CN1C(=O)C(O)(CC(=O)c2ccc(Br)cc2)c2ccccc21` (stereo not drawn), the “hERG current change (%, negative = inhibition) at 1uM” value came out at 9.18%.

Turning to `COc1ccccc1N=Nc1c(C)n[nH]c1C`, the “hERG current change (%, negative = inhibition) at 1uM” value is recorded as 12.6%.

Regarding `O=C(O)c1cccc(NC(=O)c2cc(-c3cccc(Cl)c3)nc3ccccc23)c1`, the “hERG current change (%, negative = inhibition) at 1uM” value turned out to be 23%.

Turning to `CCOc1ccc(CC(=O)NNC(=S)Nc2ccccc2)cc1Br`, the “hERG current change (%, negative = inhibition) at 1uM” value came to 7.8%.

For `O=C(NCC(c1ccco1)N1CCN(c2ccc(F)cc2)CC1)c1ccc2c(c1)OCO2` (stereo not drawn), the “hERG current change (%, negative = inhibition) at 1uM” value is reported as 4.31%.

As to `COC(=O)c1ccc(NC(=O)c2cnc3scc(C)n3c2=O)cc1`, the “hERG current change (%, negative = inhibition) at 1uM” value was 4.57%.

On to `COCCn1c(SCc2ccc(F)cc2)nc2c1c(=O)[nH]c(=O)n2C`, for which the “hERG current change (%, negative = inhibition) at 1uM” value is -4.05%.

As for `Cc1cc(C)n2c(nc3ccccc32)c1C(=O)NCc1ccccc1`, the “hERG current change (%, negative = inhibition) at 1uM” value was found to be 14.2%.

In the case of `CCCS(=O)(=O)N1CCCC(C(=O)NCCCN(C)Cc2ccccc2)C1` (stereo not drawn), the “hERG current change (%, negative = inhibition) at 1uM” value was 6.15%.

With `CC1=C(C(=O)OC2CCCCC2)C(c2ccc(F)cc2)NC(=O)N1` (stereo not drawn), the “hERG current change (%, negative = inhibition) at 1uM” value was found to be 8.19%.

Take `CCS(=O)(=O)Nc1cccc(C2=NN(S(=O)(=O)c3ccc(C)cc3)C(c3ccco3)C2)c1` (stereo not drawn): the “hERG current change (%, negative = inhibition) at 1uM” value stood at 15.8%.

As for `O=c1[nH]c2ccccc2n1CCCOc1ccccc1`, the “hERG current change (%, negative = inhibition) at 1uM” value came out at 11.2%.

For the compound `COc1ccc(-c2nnc(SC(C)C(=O)Nc3c(C)n(C)n(-c4ccccc4)c3=O)o2)cc1` (stereo not drawn), the “hERG current change (%, negative = inhibition) at 1uM” value turned out to be 4.81%.

Take `CCOc1ccc(NC(=O)CN(C)C(=O)CCNC(=O)c2ccccc2Cl)cc1OCC`: the “hERG current change (%, negative = inhibition) at 1uM” value was 7.89%.

For `Cc1cc(N2CCOCC2)nc2ccc(NC(=S)NCCN(C)C)cc12`, the “hERG current change (%, negative = inhibition) at 1uM” value stood at 14.3%.

For `C=CCN(C(=O)CCC(=O)Nc1cc(C)on1)C(C(=O)NC1CCCC1)c1ccc(OC)c(OC)c1` (stereo not drawn), the “hERG current change (%, negative = inhibition) at 1uM” value turned out to be 8.63%.

On to `O=C(CN1CCN(c2ccccc2F)CC1)N1CCc2ccccc21`, for which the “hERG current change (%, negative = inhibition) at 1uM” value came out at 14.5%.

As to `COc1ccc(-c2c(C#N)sc(C(N)=O)c2-c2ccc(OC)cc2)cc1`, the “hERG current change (%, negative = inhibition) at 1uM” value is reported as 13.4%.

Take `Cl.O=[N+]([O-])c1cccnc1N1CCN(Cc2ccc3c(c2)OCO3)CC1`: the “hERG current change (%, negative = inhibition) at 1uM” value is reported as -0.256%.

Turning to `CCOC(=O)N1CCC(Nc2cc(C)nc3c(-c4ccccc4OC)c(C)nn23)CC1`, the “hERG current change (%, negative = inhibition) at 1uM” value was -2.79%.

As for `COCCNC(=S)N(CCCN(C)C)Cc1cc2cc3c(cc2[nH]c1=O)OCCO3`, the “hERG current change (%, negative = inhibition) at 1uM” value was 21.8%.

For the compound `COc1ccc(OC)c(NC(=O)c2ccc(NC3=NC4CS(=O)(=O)CC4S3)cc2)c1` (stereo not drawn), the “hERG current change (%, negative = inhibition) at 1uM” value is 7.25%.

As for `CC[N+](CC)(CC)CCCCOc1ccc2c(c1)C(=O)c1cc(OCCCC[N+](CC)(CC)CC)ccc1-2.[I-]`, the “hERG current change (%, negative = inhibition) at 1uM” value was 15%.

In the case of `CCCc1[nH]nc2c1C(C1CCCCC1)C(C#N)=C(N)O2` (stereo not drawn), the “hERG current change (%, negative = inhibition) at 1uM” value was 9.47%.

As for `COc1ccc(CNC(=O)C(=O)NCc2ccncc2)cc1`, the “hERG current change (%, negative = inhibition) at 1uM” value stood at 18.2%.

With `CC(=O)NCCOC(=O)Nc1sc(=S)n(C)c1C`, the “hERG current change (%, negative = inhibition) at 1uM” value is listed as 2.84%.

With `Cc1ccc(NC(=O)c2cc(NC(=O)c3ccco3)ccc2N2CCOCC2)cc1`, the “hERG current change (%, negative = inhibition) at 1uM” value amounted to 13.7%.

As to `OCC[C@H]1C[C@H](O)[C@@H](O)[C@]2(OCCc3ccccc32)O1`, the “hERG current change (%, negative = inhibition) at 1uM” value worked out at 9.61%.

Consider `O=c1c(Cc2ccc(Cl)cc2)c(O)ccn1Cc1ccccc1`, for which the “hERG current change (%, negative = inhibition) at 1uM” value came to 5.62%.

`CCC(O)C1CCN(Cc2cn(Cc3ccccc3)nc2-c2cc3ccccc3o2)CC1` (stereo not drawn): the “hERG current change (%, negative = inhibition) at 1uM” value is -14.3%.

For the compound `O=c1c2ccccc2nc(SCc2cccc(F)c2)n1Cc1ccco1`, the “hERG current change (%, negative = inhibition) at 1uM” value was found to be 1.81%.

As for `O=C(CN1C(=O)NC2(CCCCCC2)C1=O)Nc1ccc(Br)cc1Br`, the “hERG current change (%, negative = inhibition) at 1uM” value is recorded as -3.07%.

Turning to `O=C(NC(CC(=O)N1CCN(c2ccc([N+](=O)[O-])cc2)CC1)c1ccccc1)c1ccccc1Cl` (stereo not drawn), the “hERG current change (%, negative = inhibition) at 1uM” value is -69%.

On to `CC(C)Cc1ccc(CN2CCCC(NC(=O)c3cnc4ccccn4c3=O)C2)cc1` (stereo not drawn), for which the “hERG current change (%, negative = inhibition) at 1uM” value is -28%.

As to `O=C(O)c1ccc(S(=O)(=O)NCc2cccnc2)cc1`, the “hERG current change (%, negative = inhibition) at 1uM” value is listed as 15.1%.

`c1ccc(-c2cc3c(N4CCCCC4)ncnc3s2)cc1`: the “hERG current change (%, negative = inhibition) at 1uM” value is given as 8.64%.

In the case of `COc1ccc(C2C(C(=O)NCc3cccnc3)c3ccccc3C(=O)N2C)cc1OC` (stereo not drawn), the “hERG current change (%, negative = inhibition) at 1uM” value was 8.59%.

Regarding `O=C(NC1CCCCC1)C(c1ccc(F)cc1)N(CCCN1CCOCC1)C(=O)c1ccc(CN2CCOCC2)o1` (stereo not drawn), the “hERG current change (%, negative = inhibition) at 1uM” value stood at 10.3%.

`O=C(O)C1=C[C@@H](c2csc3ccccc23)C[C@@H](OCc2ccc(CO)cc2)O1`: the “hERG current change (%, negative = inhibition) at 1uM” value came out at 15.6%.

For the compound `O=C(NNC(=O)C1CCN(c2ncccn2)CC1)c1ccc(F)cc1`, the “hERG current change (%, negative = inhibition) at 1uM” value worked out at 20.6%.

On to `CCn1ccnc1CN1CCCC(C(=O)c2cc(F)ccc2OC)C1` (stereo not drawn), for which the “hERG current change (%, negative = inhibition) at 1uM” value is -3.46%.

On to `COc1ccc(CSc2nnc(C)n2N)cc1`, for which the “hERG current change (%, negative = inhibition) at 1uM” value is 4.22%.

Take `COc1ccccc1CC(=O)NCCc1ccccc1`: the “hERG current change (%, negative = inhibition) at 1uM” value amounted to 12.8%.
